Source: PubChem BioAssay AID463173 (ICCB-Longwood Screening Facility, Harvard Medical School, 2010)
In all, about 52,000 compounds went through this assay and about 1,700 (3.3%) were called active. No stated cut-off is given here; in the data, active means survival mostly below about 52% (no sharp cut-off); inactive means mostly above about 56%. Some of the results follow.

Test system: Wild type
Assay: growth inhibition of S. aureus wild type versus tarO mutant, primary screen, teichoic acid synthesis inhibitors, RN4220, OD600 (AID 463173)
Conditions: S. aureus RN4220 wild type/DeltatarO growth, OD600, 18 h, hits give low values, screened at 18.75 µg/mL (by protocol)

Q: For COc1cccc(CSc2nnc(-c3ccc(F)cc3)o2)c1, which survival is on record?
A: inactive: 113%

Q: For Cc1ccc(Cn2cc(C(=O)c3ccc(F)cc3)c(=O)c3cc4c(cc32)OCO4)cc1, which survival is on record?
A: inactive: 73%

Q: How did the survival turn out when COc1ccc(CNS(=O)(=O)c2cc3c(cc2C)N(C)CCO3)cc1 was run?
A: inactive: 87%

Q: For CCOC(=O)Cn1c(=O)n(CC2CCCO2)c2nc(-c3ccccc3F)nc(C(N)=O)c21 (stereo not given), which survival is on record?
A: inactive: 57%

Q: Cc1cccc(NC(=O)c2cc(S(=O)(=O)NCc3ccc4c(c3)OCO4)ccc2F)c1C was tested. Which survival did it give?
A: inactive: 78%

Q: For CCn1nnc2cc(C(=O)Nc3cccc(Cl)c3C)ccc21, which survival is on record?
A: inactive: 75%

Q: For COc1ccc(Cn2c(CNS(=O)(=O)c3ccc(C)c(C)c3)nc3cccnc32)cc1, which survival is on record?
A: active: -1%

Q: Which survival does the source give for O=C(NCc1ccc2c(c1)CCN2C(=O)c1ccccc1)Nc1cc(F)ccc1F here?
A: inactive: 113%

Q: With CCOC(=O)Cc1ccc(NC(=O)Nc2ccccc2OCc2cc(=O)n3ccccc3n2)cc1 as the molecule, how does the survival read?
A: inactive: 75%

Q: For COc1ccc(C)cc1S(=O)(=O)NCC(c1cccs1)S(=O)(=O)c1ccc(C)cc1 (stereo not given), which survival is on record?
A: inactive: 73%

Q: With CC(Oc1ccc(F)cc1)C(=O)Nc1nc(-c2ccc(F)cc2)ns1 (stereo not given) as the molecule, how does the survival read?
A: active: -1%

Q: Which survival does the source give for CCN1CCN(c2ncnc3c2cnn3-c2ccc(C)c(Cl)c2)CC1 here?
A: inactive: 123%

Q: For COc1ccc(-c2noc(-c3ccc(N4CCCC4)c([N+](=O)[O-])c3)n2)cc1, which survival is on record?
A: inactive: 119%

Q: COc1ccc(-c2nc3scc(CCNS(=O)(=O)c4ccccc4F)n3n2)cc1 was tested. Which survival did it give?
A: inactive: 57%

Q: With CCCCc1nn2c(=O)cc(COC(=O)c3cccc(NC(=O)COc4ccccc4)c3)nc2s1 as the molecule, how does the survival read?
A: inactive: 89%

Q: For Cc1ccc(C2=NN(CC(=O)NCCCN(CC(C)C)CC(C)C)C(=O)CC2)cc1, which survival is on record?
A: inactive: 84%

Q: For O=C(NC1CCCCCC1)C1CCN(C(=O)N2CCOc3ccc(Cl)cc32)CC1, which survival is on record?
A: inactive: 84%

Q: Which survival does the source give for Cc1cc(/C=C(\C#N)C(=O)N2CCc3ccccc3C2)c(C)n1C here?
A: inactive: 105%

Q: CCOCCCNC(=O)c1ccc2c(c1)NC(=O)C(CS(=O)(=O)Cc1ccc(F)cc1Cl)N2 (stereo not given) was tested. Which survival did it give?
A: inactive: 85%

Q: With Cc1cc2[nH]c(=O)c(=O)[nH]c2cc1S(=O)(=O)NCc1ccc(F)cc1 as the molecule, how does the survival read?
A: inactive: 121%

Q: CC(OC(=O)C1CCCCC1)c1nc2ccccc2[nH]1 (stereo not given) was tested. Which survival did it give?
A: inactive: 116%

Q: With Cc1cc(C)n(-c2nc3ccccc3nc2Nc2ccc(C(C)C)cc2)n1 as the molecule, how does the survival read?
A: active: 5%

Q: Which survival does the source give for Cc1cc(C)c(NC(=O)C(C)n2c(=O)cc(C)c3c(C)nn(-c4ccccc4)c32)c(C)c1 (stereo not given) here?
A: inactive: 68%

Q: For CCN(CCCNC(=O)CSc1cc(=O)n(C)c2ccccc12)c1ccccc1, which survival is on record?
A: inactive: 77%

Q: How did the survival turn out when O=C(Nc1ccc(Cl)cc1Cl)c1cc(S(=O)(=O)N2CCC3(CC2)OCCO3)ccc1F was run?
A: inactive: 72%

Q: Which survival does the source give for CCOc1cccc(NC(=O)C2CC(=O)N(C)C(=Nc3cccc(OC)c3)S2)c1 (stereo not given) here?
A: inactive: 84%

Q: O=C(NCc1cccc(F)c1)C1CCN(c2nc3ccccc3nc2C(F)(F)F)CC1 was tested. Which survival did it give?
A: inactive: 83%

Q: For CC(=O)N1CCc2c(sc3c2c(=O)n(-c2ccccc2)c(=O)n3CC(=O)c2ccc(Cl)cc2)C1, which survival is on record?
A: inactive: 91%

Q: With COCCNC(=O)CCn1c(=O)c2cc(OC)c(OC)cc2n(CC(=O)Nc2ccc(F)c(Cl)c2)c1=O as the molecule, how does the survival read?
A: inactive: 66%

Q: For O=C(O)c1ccc(Nc2nc3ccccc3c3nncn23)cc1, which survival is on record?
A: inactive: 90%

Q: How did the survival turn out when COc1ccccc1NC(=O)C(Cc1ccccc1)NS(=O)(=O)c1ccc2c(c1)CCN2C(C)=O (stereo not given) was run?
A: inactive: 80%

Q: CC(=O)N1CCOc2cc(S(=O)(=O)NCc3ccccc3Cl)c(C)cc21 was tested. Which survival did it give?
A: inactive: 81%

Q: Which survival does the source give for Cc1cc(C)c(NC(=O)Cn2c(=O)n(-c3cccc(C(F)(F)F)c3)c(=O)c3c(C)c(C)sc32)c(C)c1 here?
A: inactive: 87%

Q: For Nc1ccc(N2CCOCC2)cc1C(F)(F)F, which survival is on record?
A: inactive: 110%

Q: For CCc1ccccc1Nc1nn2c(=O)c3ccc(C(=O)NCc4ccc(C)cc4)cc3nc2s1, which survival is on record?
A: inactive: 92%

Q: How did the survival turn out when COCCCNC(=O)c1ccc(Cn2c(=O)c3ccccc3n(CC(N)=O)c2=O)cc1 was run?
A: inactive: 71%

Q: CC(C)(C)C(=O)Nc1cc(-c2cccc(Br)c2)nn1-c1ccccc1 was tested. Which survival did it give?
A: inactive: 68%

Q: With CCC(=O)N1c2ccccc2CC1C(=O)NCCCN1CCN(c2cc(C)ccc2C)CC1 (stereo not given) as the molecule, how does the survival read?
A: inactive: 136%

Q: COc1ccc(-c2cc3nc(N)cc(=O)n3[nH]2)cc1 was tested. Which survival did it give?
A: inactive: 133%

Q: Which survival does the source give for CCN(C(=O)c1ccc2c(c1)N(Cc1cccc(Cl)c1)C(=O)c1ccccc1S2=O)c1ccccc1 (stereo not given) here?
A: active: 0%

Q: Which survival does the source give for CC(C)c1ccc2oc(-c3ccc(Cl)c(NC(=O)c4cccs4)c3)nc2c1 here?
A: active: 2%

Q: For COC(=O)C1=C(N)OC2=C(C(=O)CCC2)C1c1ccc(OC)cc1 (stereo not given), which survival is on record?
A: inactive: 118%

Q: O=C(NCCCc1nc2ccccc2n1Cc1ccc(F)cc1)C1CCCCC1 was tested. Which survival did it give?
A: inactive: 98%

Q: With Cc1ccc(C)c(CSc2nc3c([nH]c4ccccc43)c(=O)n2C)c1 as the molecule, how does the survival read?
A: inactive: 68%

Q: How did the survival turn out when COc1ccc(NC(=O)c2cc(S(=O)(=O)N3CCOCC3)cn2C)cc1Cl was run?
A: inactive: 111%

Q: Which survival does the source give for Cc1ccc(C(=O)Nc2ccc(F)cc2)cc1S(=O)(=O)N1CCCCCC1 here?
A: inactive: 88%

Q: With Cc1cccc(C)c1OCc1cc(=O)n2c(-c3ccccc3)csc2n1 as the molecule, how does the survival read?
A: inactive: 17%

Q: With Cn1nc(-c2ccc(OCC(=O)Nc3cccc(C(F)(F)F)c3)cc2)c2ccccc2c1=O as the molecule, how does the survival read?
A: inactive: 64%

Q: With O=C1CS(=O)(=O)C2(C(=O)Nc3ccccc32)N1c1cccc(Cl)c1 (stereo not given) as the molecule, how does the survival read?
A: inactive: 78%

Q: COc1cccc2c1cc1c(=O)n(CC(=O)N3CCN(c4ccccc4F)CC3)nc(C)n12 was tested. Which survival did it give?
A: inactive: 85%

Q: Which survival does the source give for CCOc1ccc(NC(=O)CCCc2nc(-c3cccc(OC)c3)no2)cc1 here?
A: inactive: 87%

Q: Cc1ccc(CNC(=O)c2sc3nc(C)cc(C)c3c2-n2cccc2)cc1 was tested. Which survival did it give?
A: inactive: 98%

Q: Which survival does the source give for COc1ccc2oc(=O)c(-c3nnc(-c4ccccc4)o3)cc2c1 here?
A: inactive: 110%

Q: How did the survival turn out when N#CCCn1nc(-c2ccccc2)cc1-c1ccccc1 was run?
A: inactive: 113%

Q: Which survival does the source give for COc1ccc2[nH]c(=O)c(CN(C(=O)c3cccc(Cl)c3)c3ccccc3OC)cc2c1 here?
A: inactive: 81%

Q: Which survival does the source give for COc1ccc(S(=O)(=O)NCCc2csc3nc(-c4ccc(Cl)cc4)nn23)cc1C here?
A: inactive: 78%

Q: CS(=O)(=O)N1CCc2cc(S(=O)(=O)NCc3ccccc3Cl)ccc21 was tested. Which survival did it give?
A: inactive: 72%

Q: CC(=O)Nc1ccccc1OCc1cc(=O)n2c3c(sc2n1)CCCC3 was tested. Which survival did it give?
A: inactive: 120%

Q: Cn1c2ccccc2c2cnn(CC(=O)NCc3ccc(Cl)cc3)c(=O)c21 was tested. Which survival did it give?
A: inactive: 92%

Q: Which survival does the source give for Cc1cccc(Cn2c(C)c(C)c3cc(C(=O)NCc4ccco4)ccc32)c1 here?
A: inactive: 78%

Q: COC(=O)CN(c1ccccn1)S(=O)(=O)c1ccccc1 was tested. Which survival did it give?
A: inactive: 99%

Q: Which survival does the source give for Cc1ccc(Sc2c(C)nn(C(=O)COc3ccccc3)c2C)cc1 here?
A: active: 9%

Q: Which survival does the source give for CC1=C(c2ccc(F)cc2)S(=O)(=O)N=C1N1CCC(C(=O)NCCc2ccco2)CC1 here?
A: inactive: 129%

Q: Which survival does the source give for Cn1cnc(S(=O)(=O)N2CCC(C(=O)NCc3ccccc3)CC2)c1 here?
A: inactive: 88%

Q: How did the survival turn out when COc1ccc(-c2nc(Cn3c(SCc4cccc(Cl)c4)nc4ccncc43)c(C)o2)cc1 was run?
A: inactive: 132%

Q: Which survival does the source give for O=C(CN1CCN(Cc2ccc(F)cc2Cl)S1(=O)=O)Nc1ccc(F)cc1 here?
A: inactive: 159%

Q: With Cc1cccc(-n2c(-c3ccco3)nc3c(cnn3-c3ccccc3C)c2=O)c1 as the molecule, how does the survival read?
A: inactive: 132%

Q: With COc1ccccc1NC(=O)CSc1nc2ccccc2c(=O)n1CCC(=O)NC1CCCCC1 as the molecule, how does the survival read?
A: inactive: 82%

Q: How did the survival turn out when Cc1ccc(C(c2sc3nc(-c4ccco4)nn3c2O)N2CCOCC2)cc1 (stereo not given) was run?
A: inactive: 77%

Q: For COC(=O)c1cc2c(cc1NC(=O)c1c(C)nn(-c3ccc(C)cc3)c1-n1cccc1)OCO2, which survival is on record?
A: inactive: 80%

Q: CCOC(=O)c1c(S(=O)(=O)N2CCCC(C(=O)N(C)Cc3ccccc3)C2)c(C)n(C)c1C (stereo not given) was tested. Which survival did it give?
A: inactive: 73%

Q: With COc1cc(NC(=O)Cn2ccn(Cc3ccccc3OC)c(=O)c2=O)cc(OC)c1 as the molecule, how does the survival read?
A: inactive: 84%

Q: CCOc1ccc(NC(=O)Cn2c(=O)oc3cc(S(=O)(=O)NC4CCCC4)ccc32)cc1 was tested. Which survival did it give?
A: inactive: 81%

Q: Which survival does the source give for Cc1ccc(NC(=O)Cn2c(C)cc(C)c(C#N)c2=O)cc1 here?
A: inactive: 73%

Q: Which survival does the source give for Cc1nn(C(=O)c2ccccc2)c(C)c1Sc1ccc(Cl)cc1 here?
A: active: 6%

Q: For Clc1cc2c(cc1Cl)Nc1cc(Cl)c(Cl)cc1N2, which survival is on record?
A: inactive: 68%

Q: Which survival does the source give for Cc1ccc(Cn2nc(C)c(NC(=O)c3cc(-c4ccc(F)cc4)on3)c2C)cc1 here?
A: inactive: 87%

Q: How did the survival turn out when COc1ccccc1N1CCN(CC(=O)c2ccc(F)cc2)CC1 was run?
A: inactive: 110%

Q: How did the survival turn out when Cc1ccccc1NC(=O)C1CCC(CNS(=O)(=O)c2ccc3c(c2)C(C)(C)C(=O)N3C)CC1 (stereo not given) was run?
A: inactive: 88%

Q: For CCOc1ccc(CCNC(=O)c2cn(C)c3ccc(S(=O)(=O)N4CCOCC4)cc3c2=O)cc1OCC, which survival is on record?
A: inactive: 67%

Q: Which survival does the source give for CCN(CC)c1ccc2cc(C(=O)Nc3cccc(OC)c3)c(=O)oc2c1 here?
A: inactive: 100%

Q: For Cc1cc(NS(=O)(=O)c2ccc(NC(=O)c3ccccc3F)cc2)nc(C)n1, which survival is on record?
A: inactive: 71%

Q: Cc1ccc(-n2ncc3c(N(C)Cc4ccccc4)ncnc32)cc1 was tested. Which survival did it give?
A: inactive: 85%

Q: Which survival does the source give for Cc1cccc(OCC(=O)NCC2(N3CCN(C)CC3)CCCCC2)c1C here?
A: inactive: 107%

Q: How did the survival turn out when O=c1oc(-c2ccco2)nc2ccccc12 was run?
A: inactive: 100%

Q: COc1ccc(OCc2ccc(-c3nc(C#N)c(N4CCC(C)CC4)o3)o2)cc1 was tested. Which survival did it give?
A: inactive: 73%

Q: Which survival does the source give for O=C(CSc1nnc(Cc2ccccc2)o1)c1ccccc1 here?
A: inactive: 98%

Q: Which survival does the source give for COc1cccc(C(=O)Nc2cc(C)on2)c1 here?
A: inactive: 115%

Q: Cc1ccc(NC(=O)c2ccc3snnc3c2)cc1Cl was tested. Which survival did it give?
A: inactive: 118%

Q: With CCc1ccc(S(=O)(=O)c2nnn(-c3ccc(F)cc3)c2N)cc1 as the molecule, how does the survival read?
A: inactive: 76%
